83 variants from the RNAGym collection of RNA variant scans (doi:10.7554/elife.90254) can be followed below.

The source gives no read counts; variants with many changes may rest on few reads.

The labels stand for the following.
B1: LINE1-full (parent)
chain: UACGUAGGUGGUUUUCCCCUGAUAGUGCUAAGGGGGCCUGGAAGUUUGGACUGGGCAGAGCUCAACACAGCGUGGCAAAGUGGCUGUGGCUAGACUGCCUCUCUGGAUUCCUCGUCACUCAGCAGGGCAUCUCUGAGAGAAAUGCC

In this series the parent is B1. The series is described as follows: self-cleavage, relative activity (ratio to wild type); higher = more cleavage; in vitro, sequencing; the parent is a self-cleaving ribozyme.
Take U1C U47A U104C: the self-cleavage came to 0.71.
In the case of U1C A50G U132C it was 0.16; in that of U1G U73A U87A U104C, 0.1.
In the case of A2G U20A U26A U81A, the self-cleavage turned out to be 0.93.
Consider U1C A2C U12C, for which the self-cleavage amounted to 0.35.
In the case of U1C U14C U143C it was 0.76.
Next, U1C U14C A59G U73C A141G: 0.36; U1C A42U A77G G126A: 0.67.
On to A2G U5G A43C A78G U130A A136G U143C, for which the self-cleavage is 0.
In the case of U1C U62C A64U U115C A142G it was 0.24.
Regarding U1A U104C U109A, the self-cleavage came to 1.7.
Next, U1A U87A U109C: 0.14; U1C A42G G82A U112C A124U A129U A141G: 2.27.
Next, A2G C3G A42G A69U U73C: 0.23.
Next, A2C A6G G32C G97A U102C U108C: 0.12.
As for U1C U15C U87C U100C, the self-cleavage is 0.
In the case of A2G A69G A141G it was 0; in that of A2G G25C A94G A107G C116U, 0.77.
In the case of A2G U26C G126A A136U it was 0.62; in that of U1C U46C C123U, 0.9.
Regarding U1C G35A A107U, the self-cleavage stood at 1.06.
In the case of U1A U39C A77U it was 0.37; in that of A2G U20C G35A, 0.69.
For U1C U115C U143A, the self-cleavage amounted to 0.96.
For U1C A64G A67U, the self-cleavage is 0.04.
In the case of U1C U13C U87G A140G, the self-cleavage came to 0.
Turning to A2G U5C A30U U47A A124G, the self-cleavage stood at 0.63.
As for A2G G8A U9A G34A G86U A138G, the self-cleavage is 0.16.
Next, U1C U96C U143C: 0.13.
Next, A2G U13G U23C G44A: 1.28; A2G A77G C98G C145U: 0.34; A2G G4A U132C: 0.91.
Next, A2G C71U A92G A136G: 0.63; U1A G7A U62C: 0.1; U1A C18A A94G U134G: 0.39.
Consider U1C U85C U102C C111U U132C A140C, for which the self-cleavage is 0.
In the case of A2G U14C A30G U73A it was 0.98; in that of U1C A6U U12C U23A, 1.25; in that of A2G G74U U119C U134A, 1.4.
Next, U1A A50G G97A: 0.11; U1A U20A U73C U104A: 0.92; A2G A50G U73G: 0.14.
In the case of A2G G40U U96C it was 0.44; in that of U1C G53U U96A A142U, 0.03; in that of A2G G40A A43G A57G U102A A138G U143A, 0.88.
Consider U1C U9C A31U A94G A142G, for which the self-cleavage was 0.18.
As for U1C A69G C71U A124G, the self-cleavage came to 0.03.
As to U1A A59G G114A U134C, the self-cleavage worked out at 0.24.
In the case of A2G U14C A65G G88A it was 0.26; in that of A2G U26C A57U A59G U143C, 0.
Next, U1C A2G G10U A59G: 0.26.
Next, A2G G7U U115A A142U: 1.62; U1A U73A A107U U130C: 1.84; U1A C116U C118U: 1.36.
As to U1C U15C U46C A57U U109A, the self-cleavage is 0.1.
Next, U1C A31G A77U: 1.53; U1C U47A A77G U96C G125A: 0.17; U1C U20C U85C U112C: 0.
As to A2G C3U U13C A57C G89A A121U, the self-cleavage was 0.14.
In the case of A2G G36A U52A U119A it was 0.41.
Next, A2G G8C A124G A140G: 0.53; U1A U14C U62A A64C U104A A142G: 0.34.
Next, U1A U13A U14C: 1.25.
For U1C U39A A117G C133A, the self-cleavage is 0.99.
With U1C U15C A92G, the self-cleavage came to 0.06.
Next, U1C G36A A117U: 0.51; A2G U13C U26C: 0.35; A2G G32U U62C U104G U112A: 0.
In the case of U1C C95U U115C U119C A141G it was 0.35.
Take U1A U12A G36C: the self-cleavage worked out at 1.37.
In the case of U1C G49A A94G it was 0.11.
Next, U1C A42G C110A: 1.96; U1C A94G U96C: 0.3.
Consider U1A G7A A65G, for which the self-cleavage stood at 0.08.
In the case of U1G A24G U52C it was 0.77; in that of A2G U13C U15C A64U A69G U96A U109C, 0.89.
In the case of U1C C61G A107U it was 0.05.
Take U1C A43U A69U A141G: the self-cleavage came out at 0.05.
Next, A2G U29C U100C C110U A136G: 1.15; A2G A129U U143C: 0.53; U1G A2G A69G U81C A136U U143G: 1.84.
In the case of A2G U15A A57U G97A it was 0.22; in that of U1C U20C U45A C66A U112C U119C A141G G144A, 0.05.
